The BET-seq Pho4 binding data (Le et al. 2018)
The other results are listed elsewhere or left out. The energies were worked out here from pooled read counts, against the library average; single values are noisy.

Target: T1, Pho4 (S. cerevisiae) (UniProt P07270)
T1 sequence: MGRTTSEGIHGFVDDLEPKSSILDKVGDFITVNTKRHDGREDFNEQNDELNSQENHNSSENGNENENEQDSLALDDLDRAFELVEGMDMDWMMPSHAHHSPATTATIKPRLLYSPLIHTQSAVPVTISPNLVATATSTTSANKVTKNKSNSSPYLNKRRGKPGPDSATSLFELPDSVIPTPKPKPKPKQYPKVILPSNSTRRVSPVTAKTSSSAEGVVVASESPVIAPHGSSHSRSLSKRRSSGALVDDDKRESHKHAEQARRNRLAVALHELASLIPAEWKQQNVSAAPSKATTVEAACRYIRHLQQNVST
Assay: relative binding free energy (BET-seq); higher = weaker binding
Settings: reference: library average

| Sequence | relative binding free energy [kcal/mol] |
| --- | --- |
| GTGGGCACGTGGGAAC | -0.14 |
| TGACGCACGTGGTGCG | -0.25 |
| TGATACACGTGTCGTG | 0.04 |
| TCGGTCACGTGGTTTT | 0.15 |
| TTCTACACGTGAAGGT | 0.3 |
| ATGGGCACGTGGCGGA | -0.19 |
| AACTTCACGTGGGGAT | 0.22 |
| CTAGGCACGTGTTGGG | -0.07 |
| GGGGTCACGTGTGATC | 0.16 |
| CGGGGCACGTGGGGCC | -0.38 |
| TGATGCACGTGTTTGC | 0.02 |
| GAGATCACGTGTAGGA | 0.17 |
| AGTTACACGTGGCAGT | 0.11 |
| TAATTCACGTGTAGAG | 0.11 |
| TGGATCACGTGCGGTC | 0.28 |
| TGAATCACGTGAGATA | 0.58 |
| TTAGACACGTGGGGTT | -0.15 |
| CGGGACACGTGGGTAA | -0.08 |
| TATTTCACGTGGATGG | 0.26 |
| TTTTACACGTGCTATT | 0.06 |
| TACGTCACGTGGGAGG | -0.04 |
| GCGTGCACGTGAATGG | 0.17 |
| TCTGGCACGTGATGAT | -0.12 |

| Sequence | relative binding free energy [kcal/mol] |
| --- | --- |
| TTCGTCACGTGGGGGT | 0.04 |
| GAATGCACGTGATTTT | 0.2 |
| TTTCGCACGTGGGTAG | -0.23 |
| AAATTCACGTGAAGGA | 0.42 |
| TTATGCACGTGATGCG | 0.03 |
| GTGTCCACGTGCGAGG | 0.08 |
| AGCGTCACGTGGGGCC | 0.06 |
| ATTTGCACGTGTTATC | 0.13 |
| TTTCTCACGTGTTTCG | 0.12 |
| TTGGGCACGTGGATTG | 0.05 |
| CAGGTCACGTGGGAGC | 0.08 |
| ATGGGCACGTGGCAGA | -0.26 |
| TTTTACACGTGTTGAC | 0.06 |
| TAGAACACGTGTGAGG | 0.1 |
| AATTGCACGTGTGCAT | -0.04 |
| GAAGGCACGTGGAATT | 0.18 |
| GGGACCACGTGAGGTG | 0.23 |
| ATGGACACGTGGAGAA | 0.08 |
| TTGAGCACGTGATGTT | 0.01 |
| TTTATCACGTGTTGGC | 0.13 |
| TATTACACGTGATGTG | 0.1 |
| ATGGACACGTGTTGAG | -0.04 |
| GTAAGCACGTGTGTTT | 0.06 |

| Sequence | relative binding free energy [kcal/mol] |
| --- | --- |
| TGGGGCACGTGGCTTT | -0.15 |
| CTAATCACGTGTATGT | 0.1 |
| AAGTTCACGTGGGCGC | 0.28 |
| TTTTGCACGTGTTCGC | -0.02 |
| TGTTCCACGTGGAGGA | -0.01 |
| ATTTGCACGTGGTCGG | -0.01 |
| TAGATCACGTGAGTTT | 0.23 |
| GTCTGCACGTGGTGCT | 0.02 |
| GACAACACGTGGGGTG | -0.06 |
| TATTTCACGTGTCTAG | 0.16 |
| ATTATCACGTGGGTAA | 0 |
| TTTTGCACGTGGGCAA | -0.23 |
| CGTGTCACGTGGAGTT | 0.15 |
| TTGAACACGTGGGTTT | -0.1 |
| GTATCCACGTGGTTAG | 0.13 |
| CGTGTCACGTGTACGG | -0.05 |
| TGGATCACGTGTTGCG | 0.22 |
| TTTTTCACGTGAGTGA | 0.43 |
| ACTTGCACGTGTGAGG | 0.03 |
| CGGCTCACGTGGCGTG | 0.11 |
| AAGGACACGTGGGTCT | -0.19 |
| GGGGCCACGTGGAGTA | -0.05 |
| TTAATCACGTGGTAAT | 0.12 |

| Sequence | relative binding free energy [kcal/mol] |
| --- | --- |
| ATTAACACGTGGTAGG | -0.04 |
| TAGGTCACGTGGATGG | 0.13 |
| GGTCTCACGTGAGGCG | 0.21 |
| CAAGGCACGTGTTAGT | -0.16 |
| GTAATCACGTGTTTGC | 0.18 |
| TGGTTCACGTGAGAGA | 0.31 |
| GCTAGCACGTGGGATG | -0.14 |
| CGTTGCACGTGTTGCA | -0.03 |
| GGTAGCACGTGGTTTA | -0.12 |
| GGTTGCACGTGGACGT | 0.02 |
| GTGTTCACGTGATGTG | 0.4 |
| GGGGGCACGTGGATAA | -0.13 |
| CAGTGCACGTGATTAG | 0.15 |
| TGAATCACGTGTTGGA | 0.06 |
| AAACTCACGTGTGGTT | 0.29 |
| AGTGTCACGTGTTGAG | 0.15 |
| TGTGACACGTGCTGGT | -0.04 |
| GGTGTCACGTGGCACG | -0.03 |
| TAACTCACGTGGATGG | 0.25 |
| AGAATCACGTGTTGTG | 0.12 |
| GACTGCACGTGTGTTT | 0.1 |
| TTAATCACGTGTTGCG | 0.12 |
| TGTTACACGTGGCTTA | -0.1 |

| Sequence | relative binding free energy [kcal/mol] |
| --- | --- |
| AGGCTCACGTGATGAT | 0.38 |
| TGTATCACGTGAGTGG | 0.31 |
| TCATGCACGTGGTGGA | 0.04 |
| CGGGACACGTGGGCAG | -0.1 |
| GTTTACACGTGATTAG | 0.26 |
| CTGTACACGTGCTGGA | 0.16 |
| TGGTCCACGTGTGGTA | 0.09 |
| TGTCGCACGTGCGATT | 0.08 |
| TATCTCACGTGGGTAA | 0.14 |
| GTCGACACGTGAGTGG | 0.4 |
| GGATGCACGTGGGCGC | -0.12 |
| TTGGTCACGTGCACGT | -0.05 |
| ATCTTCACGTGACGGT | 0.31 |
| GTAAGCACGTGGATTG | 0.11 |
| CTGAGCACGTGCGTGT | -0.1 |
| TAAATCACGTGTAGAG | 0.21 |
| TGTCACACGTGGGTGA | -0.15 |
| TAAAACACGTGATTGT | 0.14 |
| TTTGACACGTGCGCGT | -0.19 |
| GCTGGCACGTGGCGGG | -0.09 |
| GTGTTCACGTGATATG | 0.31 |
| CGGGGCACGTGATGGG | 0 |
| GTGCACACGTGATAGG | 0.23 |
